Results on 94 molecules are retold here after PubChem BioAssay AID360 (National Center for Advancing Translational Sciences (NCATS), 2006).

Screen size: about 48,000 compounds; about 550 (1.1%) were called active. Another 4% or so got no clear call; they are omitted. Cut-off read from the data, not from the text of the source: active = potency below about 15 µM; inconclusive = mostly about 16 µM to 33 µM; inactive = weaker than that. This is one part of the list.
Potency is the fitted concentration of half-maximal effect.

The assay concerns the target Lysosomal acid glucosylceramidase (Homo sapiens) (UniProt P04062). The assay can be described thus: Glucocerebrosidase.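 Note: the screen sought inhibitors.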 Conditions: purified enzyme, resorufin glucoside fluorescence (screen aimed at inhibitors), 20 min; series mostly up to 77 µM. The method, boiled down: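 Normal human glucocerebrosidase (0.2 nM final) was assayed with resorufin β-D-glucopyranoside (30 uM final) in 50mM citric acid/KH2PO4, 10mM sodium taurocholate, 0.01% tween-20, pH 5.9. Compounds were titrated; fluorescence (Ex 548, Em 600) read after 20 min at RT.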
Sequence of UniProt P04062 (P04062 whole entry, looked up): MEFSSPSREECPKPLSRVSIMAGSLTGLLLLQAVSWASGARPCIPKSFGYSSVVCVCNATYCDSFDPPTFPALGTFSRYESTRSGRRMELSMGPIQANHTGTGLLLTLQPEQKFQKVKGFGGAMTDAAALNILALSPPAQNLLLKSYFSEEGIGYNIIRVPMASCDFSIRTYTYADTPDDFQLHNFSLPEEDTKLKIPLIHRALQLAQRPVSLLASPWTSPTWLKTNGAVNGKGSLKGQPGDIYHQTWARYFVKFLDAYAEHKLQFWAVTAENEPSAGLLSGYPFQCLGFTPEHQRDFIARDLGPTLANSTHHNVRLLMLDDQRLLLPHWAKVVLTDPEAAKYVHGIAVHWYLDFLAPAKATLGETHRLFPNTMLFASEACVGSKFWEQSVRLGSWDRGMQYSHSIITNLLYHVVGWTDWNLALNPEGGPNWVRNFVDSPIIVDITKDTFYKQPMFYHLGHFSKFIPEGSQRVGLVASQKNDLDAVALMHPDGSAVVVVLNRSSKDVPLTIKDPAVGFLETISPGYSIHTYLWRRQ
Regarding `CCOC(=O)CNC(=O)CSc1nnc(-c2ccccc2OC)n1CC`, the Potency is inactive: > 76.9 µM.
For `O=C(O)CSc1nnc(C2CC2)n1-c1ccccc1`, the Potency was inactive: > 76.9 µM.
With `Cc1nn(-c2ccc(C(=O)Nc3nnc(C4CC4)s3)cc2)c(C)c1Cl`, the Potency was inactive: > 76.9 µM.
Next, `Cn1c(=O)[nH]c(=O)c2c1nc(Br)n2Cc1ccccc1Cl`: inactive: > 76.9 µM; `COC(=O)[C@@H]1C2CCC(C(=O)Nc3ccccc3)(CC2)[C@@H]1C(=O)OC`: inactive: > 76.9 µM.
For the molecule `CCCc1ccc(OCCNC(C)=O)cc1`, the Potency is inactive: > 76.9 µM.
Take `COc1ccc(-c2ccc(C(=S)N3CCN(C(C)=O)CC3)o2)cc1`: the Potency was inactive: > 76.9 µM.
For the molecule `CCOC(=O)c1cnc(-n2nc(C)cc2C)nc1Nc1cccc(C(=O)O)c1`, the Potency was inactive: > 76.9 µM.
Turning to `CC(=O)c1c(C)n(-c2ccccc2)c2ccc(O)cc12`, the Potency is inactive: > 76.9 µM.
Next, `O=S1(=O)CC(O)C(NCc2ccco2)C1` (centres undefined): inactive: > 76.9 µM; `COc1ccc2nc(NC(=O)c3ccc(Br)s3)sc2c1`: inactive: > 76.9 µM.
On to `c1ccc(/N=C2\N=C(Nc3ccccn3)c3ccccc32)nc1`, for which the Potency was inactive: > 76.9 µM.
Next, `CCN(CC)C(=O)CSc1nnc(-c2ccccc2)n1-c1ccccc1`: inactive: > 76.9 µM.
Turning to `CCOC(=O)N1CCN(C(=O)c2ccc3c(=O)n4c(nc3c2)CCCCC4)CC1`, the Potency was inactive: > 76.9 µM.
Next, `COc1ccc2c(c1OC)C(=O)N(c1ccccn1)C2`: inactive: > 76.9 µM; `CCc1cc2c(NCCC(=O)O)nc(C)nc2s1`: inactive: > 76.9 µM.
For the molecule `Cn1c(=O)c2c(nc(Oc3ccc(-c4ccccc4)cc3)n2C)n(C)c1=O`, the Potency is inactive: > 76.9 µM.
For `Cc1ccc(F)cc1NC(=O)C1CCCN(c2ncccn2)C1` (centres undefined), the Potency was inactive: > 76.9 µM.
Next, `CCOC(=O)Cc1nn(C)c(=O)c2ccccc12`: inactive: > 76.9 µM.
For the molecule `C=CCNC(=O)c1ccccc1NS(=O)(=O)c1ccccc1`, the Potency is inactive: > 76.9 µM.
For `O=C(CC1SCCNC1=O)Nc1cccc(Cl)c1` (centres undefined), the Potency is inactive: > 76.9 µM.
For `COn1c(-n2nc(C)cc2C)nc2ccccc2c1=O`, the Potency is inactive: > 76.9 µM.
In the case of `COC(=O)c1nnn(-c2nonc2N)c1CSCCO`, the Potency is inactive: > 76.9 µM.
In the case of `CCCn1cc(NC(=O)c2cc3n(n2)C(C(F)(F)F)CC(c2ccccc2)N3)cn1` (centres undefined), the Potency is inactive: > 76.9 µM.
With `COc1ccc(CN(C(=O)c2ccccc2OC)C2CCS(=O)(=O)C2)cc1` (centres undefined), the Potency is inactive: > 76.9 µM.
Next, `Cc1sc2ncnc(Sc3nnc4sc5ccccc5n34)c2c1C`: inactive: > 76.9 µM; `COCCCNC(=O)CC(NS(=O)(=O)c1ccc(OC)cc1)c1ccc(OC)cc1` (centres undefined): inactive: > 76.9 µM; `O=C(OCCN1C(=O)c2ccccc2C1=O)c1cc(S(=O)(=O)N2CCOCC2)ccc1Cl`: inactive: > 76.9 µM.
Consider `CN1CCN(CCN2CCn3c2nc2ccccc23)CC1`, for which the Potency is inactive: > 76.9 µM.
As to `O=C(c1ccccc1)c1ccc(Oc2ncccn2)cc1`, the Potency is inactive: > 76.9 µM.
For the molecule `O=C(O)CSc1nnc(CNc2ccc(Cl)cc2)n1Cc1ccccc1`, the Potency was inactive: > 76.9 µM.
On to `CCn1cc(C(=O)OCc2ccccc2)c(=O)c2ccc(C)nc21`, for which the Potency is inactive: > 76.9 µM.
Turning to `COc1cccc(N2CCN(C(=O)c3[nH]c(C)c(C(C)=O)c3C)CC2)c1`, the Potency was inactive: > 76.9 µM.
With `OC(CN1CCOCC1)CN(c1ccccc1)c1ccccc1` (centres undefined), the Potency result was “inactive”.
With `Cc1ccc(S(=O)(=O)NCC(=O)OCC(=O)N2CCc3ccccc32)cc1`, the Potency is inactive: > 76.9 µM.
Take `COc1cc(OC)c(C(=O)COc2ncnc3ccccc23)c(OC)c1`: the Potency is inactive: > 76.9 µM.
`COc1cccc(N2CCN(C(=O)C3C4C=CC5(CN(Cc6ccccc6Cl)C(=O)C35)O4)CC2)c1` (centres undefined): the Potency was inactive: > 76.9 µM.
Next, `COc1ccc(-c2ccc(-c3noc(C4CCCCC4)n3)c(OC)n2)cc1`: inactive: > 76.9 µM.
Consider `O=C(c1ccccc1F)N1CCc2ccccc21`, for which the Potency is inactive: > 76.9 µM.
For `CC(NC(=O)c1cc(-c2cccs2)on1)c1ccccc1` (centres undefined), the Potency was inactive: > 76.9 µM.
Next, `O=c1cc(N2CCCC2)[nH]c(=O)n1-c1ccc(Cl)cc1`: inactive: > 76.9 µM; `Cc1nnc(SCCn2c(Br)nc3c2c(=O)[nH]c(=O)n3C)s1`: inactive: > 76.9 µM; `COCCCNC(=O)c1cccc(OC)c1OC`: inactive: > 76.9 µM.
Next, `N/C(Cn1nnc(-c2ccccc2)n1)=N\O`: inactive: > 76.9 µM.
Regarding `CCN(CC)S(=O)(=O)c1ccc2oc(C(=O)N3CCOCC3)c(C)c2c1`, the Potency was inactive: > 76.9 µM.
In the case of `O=S(=O)(c1ccc(NCCc2c[nH]c3ccccc23)nc1)N1CCOCC1`, the Potency is inactive: > 76.9 µM.
Next, `Cc1ccc(S(=O)(=O)N2CCCC2C(=O)NC2=NCCS2)cc1` (centres undefined): inactive: > 76.9 µM.
Next, `COC(=O)COc1ccc(S(=O)(=O)NCc2ccncc2)cc1`: inactive: > 76.9 µM.
As for `Cc1ccc(C(C)C)c(OCC(=O)N2CCOCC2)c1`, the Potency was inactive: > 76.9 µM.
For `O=C1C(c2ccncc2)=C(O)c2ccccc21`, the Potency was inactive: > 76.9 µM.
For `CCOC(=O)c1cc(-c2ccccc2)n(CC(=O)N2CCCC2)c1C`, the Potency was inactive: > 76.9 µM.
Next, `NS(=O)(=O)c1ccc(NC(=O)CSc2ccccn2)cc1`: inactive: > 76.9 µM; `O=C1CC(c2ccccc2)CC(O)=C1C=NCc1ccco1` (centres undefined): inactive: > 76.9 µM.
For `COc1ccccc1N1CCN(S(=O)(=O)c2cccc(F)c2)CC1`, the Potency is inactive: > 76.9 µM.
`O=C(CCCCCn1c(=O)[nH]c2ccccc2c1=O)NCCCN1CCN(c2ccccc2F)CC1`: the Potency was inactive: > 76.9 µM.
As for `CN(C)/C=N/c1sccc1C(N)=O`, the Potency was inactive: > 76.9 µM.
As to `COc1ccccc1NC(=O)C1=C(C)NC2=C(C(=O)CCC2)C1c1ccc(C)o1` (centres undefined), the Potency was inactive: > 76.9 µM.
On to `COc1cc(CN2CCC(C(=O)N3CCC(C)CC3)CC2)cc(Br)c1O`, for which the Potency was inactive: > 76.9 µM.
Next, `CC(C)C(=O)Nc1ccc(NC(=O)c2cccs2)cn1`: inactive: > 76.9 µM; `O=C(NC1CC2CCC(C1)N2C(=O)NCc1ccccc1)C1CC1` (centres undefined): inactive: > 76.9 µM; `COC(=O)[C@H](C)NC(=O)NCc1ccccc1F`: inactive: > 76.9 µM.
Next, `Cc1cc(C)c(NC(=O)CCCN2CCN(C)CC2)c(C)c1`: inactive: > 76.9 µM; `COC(=O)CCN(C(C)=O)c1ccc(N)cc1`: inactive: > 76.9 µM; `O=c1c2[nH]c3ccccc3c2ncn1CCN1CCNCC1`: inactive: > 76.9 µM.
Consider `COc1cccc(CN(CC(=O)NCC2CCCO2)C(=O)CCC(=O)Nc2cc(C)on2)c1` (centres undefined), for which the Potency was inactive: > 76.9 µM.
Take `CC(=O)c1cccc(NC(=O)N2CCCC2C(=O)NCc2ccc(C)cc2)c1` (centres undefined): the Potency is inactive: > 76.9 µM.
For `O=C(O)CCc1ccc(-c2cccs2)n1NC(=O)c1ccccc1Br`, the Potency was inactive: > 76.9 µM.
With `O=C(CSc1nnc(-c2ccncc2)n1Cc1ccco1)Nc1ccccc1Cl`, the Potency was inactive: > 76.9 µM.
Take `COCCCNC(=O)CCc1nc(-c2ccccc2)no1`: the Potency is inactive: > 76.9 µM.
Take `Cc1cc(C)n(-c2ccc(C(=O)NC(C)C)cc2)n1`: the Potency was inactive: > 76.9 µM.
Turning to `Cn1c(SCC(=O)c2ccccc2)nnc1C1CC1`, the Potency is inactive: > 76.9 µM.
In the case of `CCC(=O)Oc1ccc(C/C(=N\O)c2ccc(O)cc2O)o1`, the Potency is inactive: > 76.9 µM.
As for `CCc1nnc(NC(=O)c2c(OC)cccc2OC)s1`, the Potency is inactive: > 76.9 µM.
With `CN1CCN(/C(=N\O)c2nonc2N)CC1`, the Potency was inactive: > 76.9 µM.
With `CCc1nnc(SCC(=O)N2CCCc3ccccc32)nc1CC`, the Potency is inactive: > 76.9 µM.
On to `O=C(Nc1ccc2oc(Cc3ccc(Cl)cc3)nc2c1)c1cccnc1`, for which the Potency entry is “inactive”.
As for `Cc1cccc(CS(=O)(=O)Cc2ccc(C(=O)O)o2)c1`, the Potency was inactive: > 76.9 µM.
Next, `Cc1nc2cc(C(F)(F)F)ccc2n1C1CCN(CC(=O)N2CCOCC2)CC1`: inactive: > 76.9 µM.
For the molecule `COc1ccccc1N(CCC#N)C(=O)CSc1ccc2c(c1)OCCO2`, the Potency is inactive: > 76.9 µM.
For `Cc1ccc2c(c1)[nH]c1c(=O)n(Cc3ccccn3)cnc12`, the Potency is inactive: > 76.9 µM.
As for `Cc1ccc(S(=O)(=O)CC(=O)N2CCCC2)cc1`, the Potency was inactive: > 76.9 µM.
Consider `Cc1csc(N(C)C(=O)CSc2nnc(COc3ccccc3C)o2)n1`, for which the Potency was inactive: > 76.9 µM.
As to `CCSc1ccccc1C(=O)NCc1ccc(S(N)(=O)=O)cc1`, the Potency was inactive: > 76.9 µM.
On to `CCOC(=O)C1=C(N)Oc2cc(C)oc(=O)c2C1c1cccnc1` (centres undefined), for which the Potency is inactive: > 76.9 µM.
Next, `CCn1c(SCC(=O)Nc2nonc2C)nnc1-c1ccoc1C`: inactive: > 76.9 µM.
Regarding `O=C(CN1CCOCC1)N(c1ccccc1)c1ccc2ccccc2c1`, the Potency is inactive: > 76.9 µM.
Consider `COC(=O)N1CC(c2ccccc2)CC1=O` (centres undefined), for which the Potency was inactive: > 76.9 µM.
Regarding `Cc1nnc(SCc2nnc(-c3ccccc3)o2)n(N)c1=O`, the Potency was inactive: > 76.9 µM.
For the molecule `O=C(CSc1nnc(-c2cccnc2)n1Cc1ccco1)Nc1nc(-c2ccc(F)cc2)cs1`, the Potency was inactive: > 76.9 µM.
With `Cc1noc(C)c1S(=O)(=O)N1CCCC(C(=O)NCc2ccccn2)C1` (centres undefined), the Potency was inactive: > 76.9 µM.
As for `C=CCC(Nc1ccco1)c1ccccc1` (centres undefined), the Potency was inactive: > 76.9 µM.
Take `COc1cc(C2C3C(=O)N(Cc4ccccc4)C(=O)C3ON2c2ccccc2)cc(OC)c1OC` (centres undefined): the Potency is inactive: > 76.9 µM.
As for `COc1cccc(-c2nnc(SCC(=O)Nc3ccc4c(c3)OCCO4)n2Cc2ccco2)c1`, the Potency was inactive: > 76.9 µM.
Next, `CC1CN(C(=O)C2CCCCC2)C(C)CN1C(=O)C1CCCCC1` (centres undefined): inactive: > 76.9 µM.
